Sequences with one replicate were seen in a single cluster, so their values are uncertain.
These sequences were tested on ATP (assay: switch fluorescence ratio, 500 uM ATP over buffer (Cy3 cluster intensity, sum of 5 cycles each) (fold (ratio)); higher = stronger signal-on switching upon ATP binding; sequences stand for … in TCGTCGGCAGCGTCAGATGTGTATAAGAGACAGTTTTTTTTTTTTTTTTTTTTTTTTT…TC). Settings: aptamer strand: ATP DNA aptamer (quencher-CACCTGGGGGAGTATTGCGGAGGAAGG + anchor), 100 nM annealed; ATP concentration: 500 uM; one replicate.
Summary of the method: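 Cy3-labelled switching-strand clusters on a modified Illumina MiSeq flow-cell were annealed to 100 nM quencher-labelled ATP aptamer and imaged first in selection buffer, then after 15 min with 500 uM ATP at 22 °C. NaOH stripping and re-annealing separated each of five buffer/ATP cycles, and clusters outside 100-1000 RFU were excluded. The fluorescence ratio sums target-cycle Cy3 intensity over buffer-cycle Cy3 intensity per cluster and averages it per switch-domain sequence.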
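Note: ATP exposure 15 min at 22 °C before imaging.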

Row | Sequence | switch fluorescence ratio
1 | TTCGTGTTCG | 1.04
2 | TTCGTTGGGC | 0.95
3 | TTCGTTTAGG | 0.99
4 | TTCGTTTG | 1.01
5 | TTCGTTTGGT | 0.952
6 | TTCGTTTTG | 1
7 | TTCTAAAAAC | 1.07
8 | TTCTAATGT | 0.98
9 | TTCTAGAGCT | 1
10 | TTCTATCTGA | 0.966
11 | TTCTCAAGTT | 1.01
12 | TTCTCAATGA | 1.03
13 | TTCTCCCCCA | 1.14
14 | TTCTCGCATG | 1.11
15 | TTCTCGGGAG | 1.01
16 | TTCTCGTTCC | 1.19
17 | TTCTCTGCCA | 1.04
18 | TTCTCTTATA | 1.02
19 | TTCTGAAAG | 0.976
20 | TTCTGAACA | 1.01
21 | TTCTGAATAG | 1.04
22 | TTCTGACGTG | 0.996
23 | TTCTGATAAT | 1.04
24 | TTCTGATCTT | 1.02
25 | TTCTGATGGC | 0.963

Row | Sequence | switch fluorescence ratio
26 | TTCTGCTAAT | 1.07
27 | TTCTGGCTCT | 1.01
28 | TTCTGGGAGA | 0.988
29 | TTCTGGGAGC | 0.977
30 | TTCTGGGCCA | 0.962
31 | TTCTGGGTGT | 1.07
32 | TTCTGTGTTA | 1.01
33 | TTCTGTGTTC | 1.02
34 | TTCTTAAACG | 1.02
35 | TTCTTAACA | 1.04
36 | TTCTTACCCC | 1.09
37 | TTCTTATACC | 1.08
38 | TTCTTCCCCG | 1.3
39 | TTCTTCTAAG | 1.05
40 | TTCTTCTGAC | 1.1
41 | TTCTTGAAGG | 0.968
42 | TTCTTGGAGA | 1.16
43 | TTCTTGGCG | 0.984
44 | TTCTTGGCTA | 0.976
45 | TTCTTGTAGC | 1.05
46 | TTGAAAAGAG | 1.01
47 | TTGAAAGTGG | 0.973
48 | TTGAACATTT | 1.01
49 | TTGAACCGTC | 1.01
50 | TTGAACGGGC | 1.14

Row | Sequence | switch fluorescence ratio
51 | TTGAACTAGA | 0.975
52 | TTGAAGATCA | 1.02
53 | TTGAATG | 1.01
54 | TTGAATTAGT | 1.02
55 | TTGACAATAT | 1.09
56 | TTGACACATG | 0.998
57 | TTGACACCTG | 1.02
58 | TTGACAGCCC | 1.04
59 | TTGACATTTC | 0.994
60 | TTGACGAAC | 1.37
61 | TTGACGAATG | 1.08
62 | TTGACGCTTG | 1.03
63 | TTGACTTTA | 1.06
64 | TTGAGAAAGC | 0.992
65 | TTGAGACACA | 1.07
66 | TTGAGAGACT | 0.984
67 | TTGAGAGCCT | 1.08
68 | TTGAGATAGG | 1.01
69 | TTGAGCCATC | 1.02
70 | TTGAGGAGTT | 0.992
71 | TTGAGGCCTC | 1.05
72 | TTGAGGGAAA | 1
73 | TTGAGGGAT | 0.978
74 | TTGAGGTACA | 0.971
75 | TTGAGTACGC | 1.23

Row | Sequence | switch fluorescence ratio
76 | TTGAGTCTAA | 0.986
77 | TTGAGTGACT | 1.01
78 | TTGAGTTGGA | 0.978
79 | TTGATAACC | 1.05
80 | TTGATACAAT | 1
81 | TTGATACATG | 1
82 | TTGATAGCCG | 0.999
83 | TTGATAGTGT | 1.01
84 | TTGATATAGG | 1.02
85 | TTGATATTGG | 0.966
86 | TTGATCGGGA | 0.941
87 | TTGATGATGC | 0.981
88 | TTGATGCTCG | 1.04
89 | TTGATGGCCT | 1.05
90 | TTGATGTACC | 1.06
91 | TTGATGTAGC | 0.964
92 | TTGATTAATG | 1.01
93 | TTGATTGAGT | 0.997
94 | TTGATTTGGC | 1
95 | TTGCACATGG | 1.75
96 | TTGCACGG | 1
97 | TTGCATAGTC | 1.01
98 | TTGCATGTAC | 1.1
99 | TTGCCCCCCT | 1.19
100 | TTGCCGAAAA | 1.02
